The values that follow come from PubChem BioAssay AID488969 (Vanderbilt High Throughput Screening Facility, 2010).

Over roughly 110,000 compounds, “z-score” has its median near -0.1; the highest 2% begin near 2. Some of the results follow. Active and inactive are the calls of the source.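 Rule for the calls: active = z-score in the third read window above 3 or below -3; inactive = the rest.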

This assay concerns the target Metabotropic glutamate receptor 8 (Rattus norvegicus) (UniProt P70579). The experiment in a line: rat mGluR8 modulators via GIRK flux, primary screen, cell-based, thallium flux, HTS (AID 488969). Particulars: HEK293 rat mGluR8, GIRK (G protein-gated inwardly rectifying potassium channel) thallium flux, FluoZin2; at 10 µM; stronger effect = higher value; submaximal glutamate (EC20) added with thallium.
Chain of UniProt P70579 (P70579 whole entry, looked up): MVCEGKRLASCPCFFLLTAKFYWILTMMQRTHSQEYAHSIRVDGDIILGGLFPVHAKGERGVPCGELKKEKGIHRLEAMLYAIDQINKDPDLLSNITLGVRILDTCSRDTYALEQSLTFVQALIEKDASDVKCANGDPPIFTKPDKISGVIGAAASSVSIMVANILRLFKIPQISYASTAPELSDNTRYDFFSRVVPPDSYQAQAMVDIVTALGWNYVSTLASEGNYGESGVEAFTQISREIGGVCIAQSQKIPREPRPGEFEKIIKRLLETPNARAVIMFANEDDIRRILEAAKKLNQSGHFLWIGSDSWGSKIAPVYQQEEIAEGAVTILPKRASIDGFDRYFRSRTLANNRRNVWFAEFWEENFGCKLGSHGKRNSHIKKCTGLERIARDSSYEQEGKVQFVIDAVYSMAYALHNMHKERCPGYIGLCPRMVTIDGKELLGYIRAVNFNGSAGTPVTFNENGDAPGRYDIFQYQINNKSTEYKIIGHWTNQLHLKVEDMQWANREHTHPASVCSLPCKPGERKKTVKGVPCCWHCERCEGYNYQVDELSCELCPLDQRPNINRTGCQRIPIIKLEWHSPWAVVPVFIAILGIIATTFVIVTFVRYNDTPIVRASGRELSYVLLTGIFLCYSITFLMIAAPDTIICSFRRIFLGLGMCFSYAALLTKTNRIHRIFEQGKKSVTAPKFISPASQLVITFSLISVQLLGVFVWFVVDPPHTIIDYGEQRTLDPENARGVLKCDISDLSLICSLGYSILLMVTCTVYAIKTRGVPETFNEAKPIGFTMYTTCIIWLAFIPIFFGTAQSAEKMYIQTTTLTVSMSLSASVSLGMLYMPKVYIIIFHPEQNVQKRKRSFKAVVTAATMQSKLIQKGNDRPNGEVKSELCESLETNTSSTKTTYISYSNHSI
For the compound `O=C(Nc1nc2ccc(Oc3ccccc3)cc2s1)c1cc([N+](=O)[O-])ccc1N1CCOCC1`, the z-score was -0.0951.
For `O=C(NCCc1c[nH]c2ccccc12)c1cccc(S(=O)(=O)Nc2ccccc2Cl)c1`, the z-score was -0.649.
Then `CCc1ccc(NC(=S)N(CCN2CCCCC2)Cc2ccco2)cc1`, with -0.468.
Turning to `CN(C)CCCNc1cc(Cl)c(S(=O)(=O)N2CCCCC2)cc1C(=O)O`, the z-score was -0.126.
Turning to `CSc1ccccc1C(=O)NCCSc1ccccc1`, the z-score was -0.165.
Then `COc1ccccc1N1CCN(C(=O)N2CCOCC2)CC1`, with -0.3; and `Cc1ccc(C(=O)OC2=CC(=O)CC(C)(C)C2)cc1`, with -0.57.
In the case of `CC(=O)Oc1ccc(C(=O)Nc2ccc3c(c2)C(=O)N(CCC(=O)O)C3=O)cc1`, the z-score was -0.214.
With `COc1cc(CNn2cnnc2)ccc1OCC(=O)NC(C)(C)C`, the z-score was -0.0725.
With `Cc1ccc(S(=O)(=O)NCCN=C(CN2CCCC2)NS(=O)(=O)c2ccc(C)cc2)cc1`, the z-score was -0.158.
Compound `COC(=O)c1sc(NC(=O)c2cc(-c3ccccc3)nc3ccccc23)c(C#N)c1C` came in with a z-score of 0.159.
In the case of `Cc1c(C(=O)O)[nH]c2c1C(=O)CC(c1ccc(Cl)cc1)C2` (centres undefined), the z-score was active: 5.28.
For `O=C(N1CCOCC1)N(CCN1CCOCC1)Cc1cccc(Cl)c1`, the z-score is -0.0977.
Consider `CCOC(=O)c1ccccc1NC(=O)CSc1nccn1C`, for which the z-score is -0.57.
The figure for `Cn1c(=O)cc(OCC(=O)N2CCN(c3cccc(C(F)(F)F)c3)CC2)c2ccccc21` is 0.285; for `COc1ccc(CC(=O)N2CCN=C2SC)cc1` it is -0.0874; for `CCN(CC)c1ccc(C=Nc2ccccc2)c(O)c1` it is -0.215.
In turn, `CC(C)c1nnc(SCc2ccc(CSc3nnc(C(C)C)n3N)cc2)n1N` yielded a z-score of 0.149.
As for `CC(=O)c1c(C)[nH]c(C(=O)Nc2cccc(S(=O)(=O)N3CCOCC3)c2)c1C`, the z-score is -0.183.
On to `Cc1ccc(S(=O)(=O)C(C)C(=O)c2ccc3c(c2)OCCO3)cc1` (centres undefined), for which the z-score was -0.172.
Consider `CC(=O)c1c(C)nc2cc(Cl)ccc2c1N`, for which the z-score is 0.581.
As for `COc1ccc(-c2oc(NC(C)=O)c(C#N)c2-c2ccc(OC)cc2)cc1`, the z-score was -0.496.
Consider `COc1ccc(C(c2c(C)[nH]n(-c3ccccc3)c2=O)c2c(C)[nH]n(-c3ccccc3)c2=O)cc1OC`, for which the z-score was -0.0184.
`COc1ccc(-n2nnnc2S(=O)(=O)CC(=O)N2CCCCC2)cc1`: the z-score was -0.239.
Turning to `COc1ccc(OC)c2[nH]c(=O)c(CCNC(=O)C(C)C)cc12`, the z-score was -0.183.
On to `CC(=O)N1CCCc2cc(S(=O)(=O)CCC(=O)N3CCN(c4ccccc4)CC3)ccc21`, for which the z-score was -0.0012.
As for `S=C(c1ccc(-c2ccc(Cl)cc2)o1)N1CCCCC1`, the z-score is -0.0402.
The figure for `Cc1ccc(C(=O)CC2(O)C(=O)Nc3ccccc32)s1` (centres undefined) is -0.191; for `Cc1cccc(C(=O)NCCC(=O)Nc2nc(C)c(Cc3ccc4c(c3)OCO4)s2)c1` it is 0.0178.
Regarding `CCOC(=O)CSc1nnc(CNC(=O)c2cccs2)n1-c1cccc(C)c1`, the z-score was found to be 0.166.
With `CS(=O)(=O)N(CC(=O)NCc1ccc2c(c1)OCO2)Cc1ccccc1`, the z-score is -0.163.
The figure for `Cn1c(-c2ccc(F)cc2)cnc1NCc1ccccc1` is 0.0337.
The figure for `CC(C)c1ccc(CNc2ccc(N3CCOCC3)cc2)cc1` is 0.222.
`Cc1cccc(Nc2nc3c(c(=O)n(C)c(=O)n3C)n2Cc2ccccc2)c1` yielded a z-score of 0.413.
The figure for `Cc1ccc(NC(=O)C(C)Sc2nc(=O)cc(N)n2-c2ccccc2)cc1` (centres undefined) is -0.303; for `Fc1ccc(-c2csc3ncnc(Nc4ccc(N5CCOCC5)cc4)c23)cc1` it is -0.0151.
`COc1cc(C)c(S(=O)(=O)N2CCCC2)cc1C`: the z-score was -0.412.
Consider `CCOC(=O)c1sc2nc(N3CCOCC3)c3c(c2c1N)CCC3`, for which the z-score was -0.25.
With `O=C(CSc1nc2ccccc2o1)c1ccc2c(c1)OCCO2`, the z-score was -0.0602.
`CCc1ccc2nc(NC(=O)CCCc3cccs3)sc2c1`: the z-score was -0.383.
For `CC(C)(C)c1nc[nH]c(=O)c1Br`, the z-score came to 0.11.
In the case of `Nc1nc(CSCc2ccccc2)nc(N2CCOCC2)n1`, the z-score was -0.51.
For `CCOC(=O)c1ccc(NC(=O)c2ccc(CO)c(C(=O)NC3CCN(C(=O)OCC)CC3)c2)cc1`, the z-score amounted to 0.337.
In turn, `CCOc1ccccc1N1CCN(Cc2ccc(OC)c(OC)c2OC)CC1` gave a z-score of 0.162.
For the compound `Clc1ccc2c(Cl)c(-c3nnc(-c4ccccc4)o3)sc2c1`, the z-score is 0.204.
Consider `CCOC(=O)C1CCN(Cc2cnc(Oc3ccc(Cl)cc3C)s2)CC1`, for which the z-score is -0.164.
Regarding `Cn1c(SCC(=O)Nc2ccc3nc(SCC(=O)NC4CC4)sc3c2)nnc1-c1ccccc1`, the z-score is -2.37.
`OC(c1ccccc1)c1nccn1Cc1ccccc1` (centres undefined): the z-score is -0.254.
Turning to `Cc1occc1C(=O)Nc1cccc(C(=O)NCc2ccccc2)c1`, the z-score is -0.295.
The figure for `CC(=O)c1cccc(NC(=O)NCc2cccs2)c1` is -0.576.
`CCC(=O)Nc1ccc(NC(=O)c2cccc(OC)c2)nc1` returned a z-score of 0.209.
On to `O=C(N/N=C/c1ccc(OCC(=O)N2CCCCC2)cc1)c1ccccc1O`, for which the z-score was -0.287.
As to `COC(=O)c1c(NC(=O)c2ccc(Br)s2)sc2c1CCC2`, the z-score was -0.856.
With `CCCCNC(=O)C1CC(c2cccc([N+](=O)[O-])c2)=NO1` (centres undefined), the z-score is -0.039.
In the case of `COc1ccc2nc(NC(=O)C3CCCN3S(=O)(=O)c3ccc(C)cc3)sc2c1` (centres undefined), the z-score was -0.923.
As for `Cc1cc(C)nc(N2CCC(C(=O)NCc3cccc(C(F)(F)F)c3)CC2)n1`, the z-score is -0.205.
Then `O=C(CSc1nc(C2CC2)nc2ccccc12)NCc1ccc2c(c1)OCO2`, with -0.21.
For the compound `O=C(CCS(=O)NCc1ccccc1)NCc1ccccc1` (centres undefined), the z-score was active: -4.32.
For the compound `O=C(CCN1C(=O)c2ccccc2C1=O)NNC(=O)c1ccc(Cl)cc1Cl`, the z-score was 0.126.
For the compound `COc1ccc(NC(=O)OCCn2c([N+](=O)[O-])cnc2C)cc1`, the z-score was -0.144.
The figure for `Cc1ccc(NC(=O)C(C)N2C(=O)C3C4CC(C(Br)C4Br)C3C2=O)cc1` (centres undefined) is 0.288; for `Cc1cc(Cl)c(S(=O)(=O)Nc2ccc3c(c2)OCCO3)cc1OCC(N)=O` it is 0.0293; for `CC1=C(C(=O)OCC2CCCO2)C(c2ccc(C)o2)C2=C(CC(c3ccc(F)cc3)CC2=O)N1` (centres undefined) it is active: -3.31.
Take `CCC(C(=O)c1ccc2ncccc2c1)c1ccccc1` (centres undefined): the z-score is -0.445.
The figure for `CC(C)Cc1cc(C(=O)Nc2cc(Cl)ccc2Cl)no1` is -1.6.
Regarding `CCCN(CCC)CCCOC(=O)c1ccc(Cl)cc1Cl`, the z-score is active: 3.95.
For `CN(C)S(=O)(=O)c1cccc(NC(=O)c2cc3ccccc3o2)c1`, the z-score was -0.921.
Turning to `CCCNC(=O)C(NS(=O)(=O)c1cccc2nsnc12)c1ccccc1` (centres undefined), the z-score was -0.0978.
As to `CCOc1ccc(S(=O)(=O)Nc2ccc(O)c(Sc3ncn[nH]3)c2)cc1`, the z-score was determined as 0.432.
Then `CC1CCN(S(=O)(=O)c2cc(Cl)ccc2Br)CC1`, with 0.238.
The figure for `Fc1ccc(-c2nnc(-n3nnc4ccccc43)c3ccccc23)cc1` is -0.122; for `COc1cccc(C(=O)Nc2ccc3c(c2)C(=O)c2ccccc2C3=O)c1` it is 0.437; for `CN(Cc1ccccc1)C(=O)c1cc(-c2ccc(Br)cc2)on1` it is 0.618.
As to `COC(=O)c1cc(C)sc1NC(=O)C1CC=CCC1C(=O)O` (centres undefined), the z-score is -0.00112.
Regarding `O=C(CCc1nc2ccccc2c(=O)[nH]1)OCc1nnc(-c2ccccc2)o1`, the z-score stood at 0.0303.
On to `COc1cc(C(=O)Nc2cc(-c3nc4cc(C)ccc4o3)ccc2C)cc(OC)c1OC`, for which the z-score amounted to 0.403.
`COc1ccc(CC(NC(C)=O)C(=O)NC2CCN(C(=O)Nc3ccc(Cl)cc3)CC2)cc1OC` (centres undefined) registered a z-score of 1.04.
For the compound `COc1ccc(CCN2C(=O)CC(NNC(=O)c3ccc(F)cc3)C2=O)cc1OC` (centres undefined), the z-score is -0.344.
For the compound `COc1ccc(NC(=O)c2ncn[nH]2)cc1`, the z-score stood at 0.997.
`COC(=O)/C(=N\Nc1ccc(Cl)cc1)Sc1nnc(-c2ccc(OC)cc2)n1C` gave a z-score of 0.115.
The figure for `O=C(CCCN1C(=O)c2ccccc2C1=O)Nc1c(C(=O)C2CC2)oc2ccccc12` is -1.22; for `COc1ccc(CN=C(NS(=O)(=O)c2cccs2)SC)cc1` it is -0.23; for `Nc1nc(CN2CCN(c3ccccc3)CC2)nc(N2CCCc3ccccc32)n1` it is 0.216.
As to `CCCCCn1c(C(C)NC(=O)CCC)nc2ccccc21` (centres undefined), the z-score came to 1.76.
Consider `CCCCS(=O)(=O)NC1=NCN(CC)CN1`, for which the z-score is -0.22.
In the case of `CCc1ccc2c(CN3CCN(S(=O)(=O)c4cccs4)CC3)cc(=O)oc2c1`, the z-score was -0.124.
The figure for `COc1ccc(/C=C/C(=O)OCC(=O)c2c(N)n(C)c(=O)n(C)c2=O)cc1` is 0.0243; for `Cc1cccc(NC(=S)NCc2cccn2C)c1` it is 0.577.
Turning to `Cc1ccc2cc3cc(C(=O)N(CC(=O)NC4CCCC4)c4cccc(C)c4C)sc3nc2c1`, the z-score is -0.276.
The figure for `CCOc1ccc(-c2nc(CSc3nnc(N)s3)cs2)cc1OC` is -0.352; for `CCOC(=O)/C=c1\s/c(=C\c2c(OC)ccc3ccccc23)c(=O)n1CC(=O)NCC1CCCO1` (centres undefined) it is 0.0525.
The figure for `C=CCSc1nc(N)c(C(=O)Nc2ccccc2OC)cc1C(=O)Nc1ccccc1` is -0.95; for `COc1ccc(C(=O)Nn2cnnc2)cc1` it is -0.00169.
Regarding `CCCCC(=O)OCc1nc(N)nc(Nc2ccccc2C)n1`, the z-score was -0.161.
On to `CN(c1ccc(C(=O)NCc2ccccc2)cc1)S(C)(=O)=O`, for which the z-score is -0.195.
As to `CCOC(=O)N/N=C/c1cn(Cc2ccc(Cl)cc2)c2ccccc12`, the z-score was -1.29.
Then `COc1cc(NC(=S)Nc2ccc(S(=O)(=O)N3CCOCC3)cc2)cc(OC)c1OC`, with -0.491.
As for `CCOc1ccc(OCCSc2nnnn2-c2ccccc2)cc1`, the z-score worked out at 0.118.
Compound `COc1cc(C(=O)CSc2nnc(-c3ccc(O)cc3)n2CC2CCCO2)ccc1NC(C)=O` (centres undefined) yielded a z-score of 0.663.
The figure for `CC1Cc2nc(SCC(=O)Nc3ccc(F)cc3)n(C)c(=O)c2S1` (centres undefined) is -0.516.
For the compound `COc1cc(C=O)ccc1OCc1c(C)noc1C`, the z-score is -0.212.
Regarding `Cc1ccc(-n2c(C)cc(/C=N/NC(=O)c3ccc(CN4CCOCC4)cc3)c2C)cc1`, the z-score was 0.195.
Turning to `CCOc1ccc(N2C(=O)CC(N)C2=O)cc1` (centres undefined), the z-score was -0.194.
In the case of `CN1C(=O)C(CC(=O)Nc2ccc(F)cc2)N(CCCc2ccccc2)C1=S` (centres undefined), the z-score was -0.177.
`CCOc1ccc(C(=S)N2CCOCC2)cc1OC` yielded a z-score of 0.11.
Consider `COc1ccc2c(c1)CC/C(=C\C=C\c1ccccc1OC)C2=O`, for which the z-score was -0.112.
Take `COc1ccc(OC)c(-n2c(-c3cnccn3)n[nH]c2=S)c1`: the z-score is -0.441.
In the case of `CCN(c1ccccc1)S(=O)(=O)c1ccc(C(=O)Nc2nnc(COC)o2)cc1`, the z-score was 0.137.
With `Cc1cc(C)cc(NC(=O)CCC(=O)Nc2cc(C)on2)c1`, the z-score was -0.172.
